The list shows a part of the results.

The source of these data is PMC12136788.

The labels stand for the following.
T1: UNK ZnF1-6 (called full-length) (human, UniProt Q9C0B0 30-357)
T1 sequence: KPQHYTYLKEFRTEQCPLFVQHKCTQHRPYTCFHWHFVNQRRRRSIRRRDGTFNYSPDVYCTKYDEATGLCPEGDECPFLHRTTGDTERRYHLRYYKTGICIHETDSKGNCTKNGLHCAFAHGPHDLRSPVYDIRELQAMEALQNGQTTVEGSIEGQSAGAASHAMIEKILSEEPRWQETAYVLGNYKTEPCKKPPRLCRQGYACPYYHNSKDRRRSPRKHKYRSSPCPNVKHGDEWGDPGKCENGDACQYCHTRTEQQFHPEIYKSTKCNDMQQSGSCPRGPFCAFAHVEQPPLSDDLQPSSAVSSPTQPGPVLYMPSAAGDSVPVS

B1: chr2:61188134:61188237:-|CDS|ENSG00000115464|unk|total|mutant (ssRNA)
RNA: GGGAGUUCUACAGUCCGACGAUCAUCUCUCAGUUGUGGCCAUUCCAGAGGACUCUUCCGUCAUAUGCAGCAACAUGACAUUUCCGAUACCCUGUGCCGGACCAUUGAAUCUACAAUCCAUGUCGUCACAAGGAUAUCUGGCAACAACAGAGGAUUGAGCAUCA
B2: chr1:22530103:22530204:+|3pUTR|ENSG00000184677|msi1|total|mutant (ssRNA)
RNA: GGGAGUUCUACAGUCCGACGAUCCAUGUACCGAGUGGGCAGGCGGUUCCAGGGAGACAAGCAGCAUGUUAUUAAAUUGGGCCCCGGCAGUUGGACGAUAAUGGAGAAAAAGCAGGGAUGCUAUAAUGAGUCCUCCCCAAGGGUCAACAGAGGAUUGAGCAUCA
B3: chr19:13097725:13097826:+|3pUTR|ENSG00000008441|msi1|total|mutant (ssRNA)
RNA: GGGAGUUCUACAGUCCGACGAUCUGAGCCAGACGCCAACUUGACCCUCACCAGCAUUAUCAGGAGCGCGCUCAGCAAGUUGGCCGUUUCCUCCCCCCUUUCCCGGCGCCCCUCCCGCCCCCAUUCAACAUCUCUCAUCCUAUCCAACAGAGGAUUGAGCAUCA
B4: chr7:44624349:44624495:+|CDS|ENSG00000105953|unk|total|mutant (ssRNA)
RNA: GGGAGUUCUACAGUCCGACGAUCAGGCCAUUGACGGCUUCCCAGACUGUUAAGACAUUUUCACAAAACAGACCAGCAGCAGCCCGGACAUUUCAACAGAUUCGGUGCUAUUCUGCACCUGUUGCUGCUGAGCCCUUUCUCAGUCAACAGAGGAUUGAGCAUCA
B5: chr1:225491636:225491737:-|3pUTR|ENSG00000154380|msi1|total|mutant (ssRNA)
RNA: GGGAGUUCUACAGUCCGACGAUCGUACUUUGAAUUCCACCGGAAAAAGCACUCAGAAGAAAAAGUCUACAUUGGCCCGUGUUCCGAUUGAGAGUUAAUUUUCCCAUCAAGUCCAAAAGUUUCCAUCCAAGUCUACCGAAACUGCAACAGAGGAUUGAGCAUCA
B6: chr1:24840999:24841100:+|3pUTR|ENSG00000169504|msi1|total|mutant (ssRNA)
RNA: GGGAGUUCUACAGUCCGACGAUCGCUACUCCUUCCUGCCGAGCAGAAAUUGUAUUUUGCACGAACAUGCAGUUAUUGAAGAUCCGGAUCAAGGACCGACAAGGUACCGCCGUUAUCUUAAAAUAUACACUCCUAAGCAGUAUUCAACAGAGGAUUGAGCAUCA
B7: chr3:10940499:10940600:+|3pUTR|ENSG00000132164|unk|FALSE|unique (ssRNA)
RNA: GGGAGUUCUACAGUCCGACGAUCGGGGAGGGCAAUGUGGGGGCAGGGGAACAUGUCAUUGUGAUGACUUUUUUGAUAUUCAUUAGAAACAAUACAUCCUUUCUGAGAUAUUUACAGUAUUAUUAAAAAAUGAAAAAGGUUGUACAACAGAGGAUUGAGCAUCA
B8: chr1:62648186:62648303:-|CDS|ENSG00000116641|unk|FALSE|unique (ssRNA)
RNA: GGGAGUUCUACAGUCCGACGAUCGAUGACCUUAAAAGACGUUCAAUGUCAAUAGAUGAUACCCCAAGGGGUAGCUGGGCCUGUAGUAUCUUUGACUUGAAAAAUUCACUUCCUGAUGCUUUGCUUCCCAAUUUACUUGAUCGACAACAGAGGAUUGAGCAUCA
B9: ENSG00000164929:stop:overlap|stop_codon|ENSG00000164929|stop_codon|NA|stop_codon (ssRNA)
RNA: GGGAGUUCUACAGUCCGACGAUCUAACAGAUAGCAUCCAACAGAUGGACAGAAGUCGAAGAAUCACAAAGAACUGUGUCAACUAGCAGAGAGUCCAAGCAGAAGGGCAGAUGGACUUCUUCAGUGUCCUUCACGGCACUGGAUCAACAGAGGAUUGAGCAUCA
B10: chr6:105098323:105098438:-|3pUTR|ENSG00000112276|msi1|total|mutant (ssRNA)
RNA: GGGAGUUCUACAGUCCGACGAUCUAUCAGUGUCUCAAUGUGAAGAUUGUAACCUCAAGAUCCGGAAUCUUAAAAGAGCCACUCCGCCUGAAUGGGAAACGUGAGACUAUUUUUAAACACACACCUCUAAGGAAGAAGCCUCCCCAACAGAGGAUUGAGCAUCA
B11: chr8:143915506:143915607:-|3pUTR|ENSG00000178209|msi1|FALSE|unique (ssRNA)
RNA: GGGAGUUCUACAGUCCGACGAUCCCCCACACUCACUCCUGAGACCCCUGGCCUCCGGCGUCAGCCUCCAGCCUCUGUUCCCCUAGUAAGUGCCUUCCAUGUCGGCCUCUAACCCCAGGCCCCGAGGACCCAGACCCAGUGGGGCAACAGAGGAUUGAGCAUCA
B12: chr15:64957256:64957357:+|3pUTR|ENSG00000166839|msi1|total|mutant (ssRNA)
RNA: GGGAGUUCUACAGUCCGACGAUCGCUGGAAAAUUGAAACAUAAUUUCACAAUUAUUCCUUUUUCCACCUUAAAUAAUAAGAGCCGAAUACUUUCUGUGUUUUUAUCUUAUACACAUGAAUAAAUGCUAUGGCUUAUCACAGUUCAACAGAGGAUUGAGCAUCA
B13: chr4:2179307:2179465:-|CDS|ENSG00000130997|control|control|control (ssRNA)
RNA: GGGAGUUCUACAGUCCGACGAUCCAGAAUUGCUGCAUGGCUUAUAGAUCCUAGUGAUGCCACACCCUCUUUUGAAGAUUUAGUAGAAAAAUACUGUGAAAAAUCCAUUACAGUUAAAGUGAACAGCACAUAUGGAAAUUCCUCCAACAGAGGAUUGAGCAUCA
B14: ENSG00000110492:stop:overlap|stop_codon|ENSG00000110492|stop_codon|NA|stop_codon (ssRNA)
RNA: GGGAGUUCUACAGUCCGACGAUCAGCCCUGCACCCCCAAGACCAAAGCAAAGGCCAAAGCCAAGAAAGGGAAGGGAAAGGACUAGACGCCAAGCCUGGAUGCCAAGGAGCCCCUGGUGUCACAUGGGGCCUGGCCCACGCCCUCAACAGAGGAUUGAGCAUCA
B15: chr4:73571549:73576234:-|three_prime_utr|ENSG00000169435|control|control|control (ssRNA)
RNA: GGGAGUUCUACAGUCCGACGAUCUUGAUGAAUGCAUAAGUUCUGUACUUGCAUUUAUACGAACAUAUAUGAGACUUGAAUCGUAGAAAAUUGAAUGUCAAAAAAAGCUCAUUUCUUUUUGAAGUGAUGAGGUUAAUUAGGGUUCAACAGAGGAUUGAGCAUCA
B16: chr20:5938399:5938502:-|3pUTR|ENSG00000089195|unk|total|mutant (ssRNA)
RNA: GGGAGUUCUACAGUCCGACGAUCGUCUGACUCUUAACCCUUUUGAGAAUUGCUCUGAAUUUUGUUCUCAGGCAUUAUACAGUCCGUAAUUAAACUUUAAAUGCCAUUACUACUUGUUUUUUCAUAUCCCAAGAAUAAGAACAUCAACAGAGGAUUGAGCAUCA
B17: chr15:40903593:40903694:+|3pUTR|ENSG00000104142|msi1|total|mutant (ssRNA)
RNA: GGGAGUUCUACAGUCCGACGAUCCAGCCGAGGCCCUUCACCUGGAGAAGUCAGAAAUCUGACCCAAUUCCACCCCCUGCCUCCCGCACCUCUUCUGUCCCUGUCAUUCCCCACACACGUCCUGUUCACCUCGAGAGAGAGAGACAACAGAGGAUUGAGCAUCA
B18: ENSG00000118515:stop:overlap|stop_codon|ENSG00000118515|stop_codon|NA|stop_codon (ssRNA)
RNA: GGGAGUUCUACAGUCCGACGAUCCUUCUGAGGAAGACCUAGAAUUGUGGUCUUUGUUAGCUCAUUAUGUUAUUUUUUUAAAGUAGGCUUUAUAUUUUAGAGCAGCUUUAAGUUCACAGCAACAUUGAGCAGAAGGUACAGAGACAACAGAGGAUUGAGCAUCA
B19: chr9:34635388:34635489:-|3pUTR|ENSG00000147955|msi1|FALSE|unique (ssRNA)
RNA: GGGAGUUCUACAGUCCGACGAUCGGGAUAUCCAUGCUUAUGUAUCCAAACACAGAGACCCAUGGGAACAAAUGAGACACAUAUAGAUACUGAGACCUGUGUGUACAGUAGGACCAUGCACUCACACCCAUCUGGAGAGGGAGCCAACAGAGGAUUGAGCAUCA
B20: chr13:29511929:29512034:-|3pUTR|ENSG00000139514|msi1_unk|total|mutant (ssRNA)
RNA: GGGAGUUCUACAGUCCGACGAUCUAUCAUAUCCCUCAUUUCUUUCCCUGAAAUAAAAAUACACACAAGCAAAAAAAAAAUGACCGUUUCACAUCUCUCCGUUCCCUUGCCCAAACAAGAAUAUUCUCCGUUCCACUGGCCAGGCAACAGAGGAUUGAGCAUCA
B21: chr8:133458587:133458688:-|3pUTR|ENSG00000008513|msi1|total|mutant (ssRNA)
RNA: GGGAGUUCUACAGUCCGACGAUCAUGAAACAAAAGCCCUUACUUGGGAAAAGGGACCCCCACCAGCGGCCCUGCUUGCUCCGCCGCUGGGAACAUCUUUUCUGGUUUCCUGAGCCAGCACCUGAAUUGCAACGAAGCUCUGAGCAACAGAGGAUUGAGCAUCA
B22: chr1:83882962:83883136:-|CDS|ENSG00000137941|control|control|control (ssRNA)
RNA: GGGAGUUCUACAGUCCGACGAUCGACUCCUUUGCAGCUCCAGUGUUGCCAGCGCCUAGUGGAGCUUUGUAAACAGUGCCUGCUAGUGGUUUACAAAUAUGCAACUGACAAAAGAGGAUCACUUUCAGGCAUUGGUCCUGACUGCAACAGAGGAUUGAGCAUCA

The assay addresses T1, UNK ZnF1-6 (called full-length). In words: nsRBNS (natural sequence RNA bind-n-seq); RBNS binding buffer (assumed for nsRBNS): 25 mM Tris pH 7.5, 150 mM KCl, 3 mM MgCl2, 0.01% Triton X-100, 500 ug/ml BSA, 20 U/ml SUPERase-In, 4 C; UNK is unkempt and MSI1 is Musashi-1; names of the RNAs are library labels; protein concentration not given here; high values mean tight binding.
B1 had a binding signal of 0.515 enrichment R.
B2: the binding signal worked out at 1.1 enrichment R.
Turning to B3, the binding signal is 0.936 enrichment R.
Molecule B4 gave a binding signal of 0.451 enrichment R.
Regarding B5, the binding signal came out at 0.457 enrichment R.
As for B6, the binding signal is 0.531 enrichment R.
As for B7, the binding signal amounted to 1.27 enrichment R.
Molecule B8 displayed a binding signal of 0.414 enrichment R.
Turning to B9, the binding signal stood at 0.422 enrichment R.
The molecule B10 had a binding signal of 0.46 enrichment R.
B11 returned a binding signal of 0.769 enrichment R.
The molecule B12 gave a binding signal of 0.676 enrichment R.
Then B13, with 0.647 enrichment R; and B14, with 0.725 enrichment R.
For B15, the binding signal is 0.592 enrichment R.
B16 had a binding signal of 0.964 enrichment R.
For the molecule B17, the binding signal worked out at 0.801 enrichment R.
Then B18, with 1.11 enrichment R; and B19, with 0.761 enrichment R.
Then B20, with 0.604 enrichment R.
B21 yielded a binding signal of 0.484 enrichment R.
B22 showed a binding signal of 0.655 enrichment R.
